pIC50: −log10 of the molar value. By IC50 is meant the dose at which the fit gives 50% viability; fits outside the tested doses are given as limits. The AUC spans the tested range (256-fold, ending at the top dose) of the same fit; the more sensitive the line, the further below 1.
The cell lines below were run with FC(F)c1nc2ccccc2n1-c1nc(N2CCOCC2)nc(N2CCOCC2)n1 [ZSTK474] (assay: Viability of human cancer cell lines after 72 h of drug (GDSC screen)).
Experimental: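 Human cancer cell lines in 384-well plates, medium with 10% serum, drug for 72 h over a 256-fold dose range (nine 2-fold or five 4-fold steps up to the top dose). Adherent lines were fixed and stained with the nucleic acid dye Syto60, suspension lines read with resazurin; signal relative to control wells, capped at 0 and 100%. One two-parameter sigmoid per drug and line, fitted in a mixed model over all curves with the slope shared within a line.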

Row | Cell Line | AUC | pIC50
1 | NCI-H1299 (large cell lung carcinoma, adherent, top dose 5.12 µM) | 0.869 | < 5.29
2 | NCI-H1304 (small cell lung carcinoma, suspension, top dose 5.12 µM) | 0.661 | 6.03
3 | NCI-H1355 (lung adenocarcinoma, adherent, top dose 5.12 µM) | 0.901 | < 5.29
4 | NCI-H1395 (lung adenocarcinoma, adherent, top dose 5.12 µM) | 0.779 | 5.55
5 | NCI-H1417 (small cell lung carcinoma, suspension, top dose 5.12 µM) | 0.842 | 5.33
6 | NCI-H1435 (lung adenocarcinoma, semi-adherent, top dose 5.12 µM) | 0.922 | < 5.29
7 | NCI-H1436 (small cell lung carcinoma, suspension, top dose 5.12 µM) | 0.913 | < 5.29
8 | NCI-H1437 (lung adenocarcinoma, adherent, top dose 5.12 µM) | 0.666 | 6.02
9 | NCI-H1563 (lung adenocarcinoma, adherent, top dose 5.12 µM) | 0.684 | 5.94
10 | NCI-H1568 (lung adenocarcinoma, adherent, top dose 5.12 µM) | 0.857 | < 5.29
11 | NCI-H1573 (lung adenocarcinoma, adherent, top dose 5.12 µM) | 0.868 | 5.35
12 | NCI-H1581 (large cell lung carcinoma, semi-adherent, top dose 5.12 µM) | 0.929 | < 5.29
13 | NCI-H1623 (lung adenocarcinoma, adherent, top dose 5.12 µM) | 0.969 | < 5.29
14 | NCI-H1648 (lung adenocarcinoma, adherent, top dose 5.12 µM) | 0.535 | 6.40
15 | NCI-H1651 (lung adenocarcinoma, adherent, top dose 5.12 µM) | 0.984 | < 5.29
16 | NCI-H1666 (lung adenocarcinoma, semi-adherent, top dose 5.12 µM) | 0.823 | 5.47
17 | NCI-H1688 (small cell lung carcinoma, adherent, top dose 5.12 µM) | 0.919 | < 5.29
18 | NCI-H1693 (lung adenocarcinoma, adherent, top dose 5.12 µM) | 0.829 | < 5.29

Row | Cell Line | AUC | pIC50
19 | NCI-H1694 (small cell lung carcinoma, suspension, top dose 5.12 µM) | 0.822 | 5.53
20 | NCI-H1703 (lung adenocarcinoma, adherent, top dose 5.12 µM) | 0.68 | 5.94
21 | NCI-H1734 (lung adenocarcinoma, adherent, top dose 5.12 µM) | 0.826 | 5.45
22 | NCI-H1755 (lung adenocarcinoma, adherent, top dose 5.12 µM) | 0.356 | 6.92
23 | NCI-H1770 (non-small cell lung carcinoma, suspension, top dose 5.12 µM) | 0.943 | < 5.29
24 | NCI-H1781 (lung adenocarcinoma, adherent, top dose 5.12 µM) | 0.856 | 5.39
25 | NCI-H1792 (lung adenocarcinoma, adherent, top dose 5.12 µM) | 0.656 | 6.08
26 | NCI-H1793 (lung adenocarcinoma, adherent, top dose 5.12 µM) | 0.788 | 5.48
27 | NCI-H1836 (small cell lung carcinoma, suspension, top dose 5.12 µM) | 0.894 | < 5.29
28 | NCI-H1838 (lung adenocarcinoma, adherent, top dose 5.12 µM) | 0.925 | < 5.29
29 | NCI-H1869 (lung squamous cell carcinoma, adherent, top dose 5.12 µM) | 0.748 | 5.74
30 | NCI-H1876 (small cell lung carcinoma, adherent, top dose 5.12 µM) | 0.739 | 5.81
31 | NCI-H1915 (large cell lung carcinoma, adherent, top dose 5.12 µM) | 0.945 | < 5.29
32 | NCI-H1944 (lung adenocarcinoma, adherent, top dose 5.12 µM) | 0.657 | 6.05
33 | NCI-H1975 (lung adenocarcinoma, adherent, top dose 5.12 µM) | 0.71 | 5.86
34 | NCI-H1993 (lung adenocarcinoma, adherent, top dose 5.12 µM) | 0.73 | 5.74
35 | NCI-H2009 (lung adenocarcinoma, adherent, top dose 5.12 µM) | 0.969 | < 5.29
